# From the RNAGym collection of RNA variant scans (doi:10.1073/pnas.2313332121)
# Variants at the floor of the assay are shown more often than the library holds them.
# B1: TPR 5TU (parent)
# chain: GGAUCUUCUCGAUCUAACAAAAAAGACAAAUCUGCCACAAAGCUUGAGAGCAUCUUCGGAUGCAGAGGCGGCAGCCUUCGGUGGCGCGAUAGCGCCAACGUUCUCAACUAUGACACGCAAAACGCGUGCUCCGUUGAAUGGAGUUUAUCAUG
# Variants of: B1
# Assay: polymerase ribozyme fitness, log enrichment relative to wild type (log ratio); higher = more active; in vitro selection for triplet polymerase activity
# Procedure, shortened: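 PCR was used to build mutant libraries for each subunit of a heterodimeric triplet polymerase ribozyme, which were then transcribed. A single in vitro selection round, in triplicate, used a frozen incubation at −7 °C and recovered extended constructs by gel excision, streptavidin beads and RT-PCR. Fitness is the logarithm of genotype enrichment relative to wild-type enrichment, averaged over replicates with inverse-variance weights. The logarithm is base 2, and after Illumina sequencing only genotypes with ≥10 input reads and ≥1 read per output were kept.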
row,Variant,polymerase ribozyme fitness (log ratio)
1,A28G U31A U55A G68U A91U C116U C118G C123G,≤ -4.2
2,A28G U31G A37C C54G G84U A98G A115U C123G C125U,≤ -4.2
3,A28G U31G C36A U56A C95A G141C,-3.69
4,A28G U33A C87G G117U G136C,≤ -4.2
5,A28G U33G G34U G59C U104G C118U,≤ -4.2
6,A28G U45C C69U C96U,≤ -4.2
7,A28G U53A,-3.62
8,A28G U53A C76A G100C G128A,≤ -4.2
9,A28G U53A C76A U78G A91U C95U,≤ -4.2
10,A28G U53A U56A G67C U145G,≤ -4.2
11,A28G U53A U130G,≤ -4.2
12,A28G U55A G133C U135A,≤ -4.2
13,A28G U56A,-3.7
14,A28G U56A G59U G92C C108A,≤ -4.2
15,A28G U61A C72G C87G,≤ -4.2
16,A28G U82G G140C,≤ -4.2
17,A28U,-3.38
18,A28U A29G C32U C57G,≤ -4.2
19,A28U A29U U44A C57G A91G C93A G112A C118U G141C,≤ -4.2
20,A28U A29U U61A G81A C93A,≤ -4.2
21,A28U A30C C43G U78A G92A U146A C149U,≤ -4.2
22,A28U A30C C79A,≤ -4.2
23,A28U A30C U56A G59A A66G C85U C103A C118G G141U U145C,≤ -4.2
24,A28U A30G C38U G117A,≤ -4.2

row,Variant,polymerase ribozyme fitness (log ratio)
1,A28U A30G C85G,≤ -4.2
2,A28U A30U C36U C38U U77A U109A G126A,≤ -4.2
3,A28U A37C C87A G117A G140C,≤ -4.2
4,A28U A37C G42U C76U U78G,≤ -4.2
5,A28U A37C G42U G67A G86U G124U,≤ -4.2
6,A28U A37C U44A A106U A119G,≤ -4.2
7,A28U A37C U55A A106C U134G G140A,≤ -4.2
8,A28U A37G A52G U55A G58C C95A U145C C149G,≤ -4.2
9,A28U A37G G50C A91C G92U G152A,≤ -4.2
10,A28U A37U A73G G92U A106G C118G,≤ -4.2
11,A28U A39G G67U C75A,≤ -4.2
12,A28U A39U,≤ -4.2
13,A28U A39U U44A C57U C75U C87U A106U,≤ -4.2
14,A28U A40C C87A,≤ -4.2
15,A28U A40C G46C G59A G67C A113C G143A,≤ -4.2
16,A28U A40C U44A C57U A98U G100A A107G,≤ -4.2
17,A28U A40G U55A G92C U102G A115U,≤ -4.2
18,A28U A40U A49G G88U A91U G92U A113G U148A,≤ -4.2
19,A28U A40U G48A A119U U127C U146G,≤ -4.2
20,A28U A40U G50U C87U U111G,≤ -4.2
21,A28U A40U U82C U148A,≤ -4.2
22,A28U A41C A52G G81A U90C G126U C149U,≤ -4.2
23,A28U A41C C75U G81A C103G C149G,≤ -4.2
24,A28U A41C G88C,≤ -4.2

row,Variant,polymerase ribozyme fitness (log ratio)
1,A28U A41G U82A G83C C87A C108U G143U,≤ -4.2
2,A28U A41U G65A C75G G81A A150U,≤ -4.2
3,A28U A41U G67C C93U G124C U135A,≤ -4.2
4,A28U A47C G74C C95U A142C C149A,≤ -4.2
5,A28U A47U C57U G58C C99A,≤ -4.2
6,A28U A47U G62A G83A G84C C131G,≤ -4.2
7,A28U A49C C57A A91U U134G,≤ -4.2
8,A28U A49G C123A,≤ -4.2
9,A28U A52C G94U C96G,≤ -4.2
10,A28U A52U C75U C87U C93G,≤ -4.2
11,A28U A60C C87A C96U,≤ -4.2
12,A28U A64G A66U A73U G81U C95U C114U C149A,≤ -4.2
13,A28U A73U A91G C125A A137C,≤ -4.2
14,A28U A73U C95U A121G,≤ -4.2
15,A28U A73U G84U G100A C125G,≤ -4.2
16,A28U A89C,≤ -4.2
17,A28U A106G A107U A119G,≤ -4.2
18,A28U A119U,≤ -4.2
19,A28U A147C U151C G152C,≤ -4.2
20,A28U C32A C85G G141U,≤ -4.2
21,A28U C32G C36U U44G U77C C79U G83C G92U C118A G128C A138G C149G,≤ -4.2
22,A28U C32U A47U C85G G128U U130C,≤ -4.2
23,A28U C35A C75G U77A A91U C96U G141A,≤ -4.2
24,A28U C35U A39C G68C C76U C85G U135G,≤ -4.2

row,Variant,polymerase ribozyme fitness (log ratio)
1,A28U C35U G86U,≤ -4.2
2,A28U C36G A107U U148A,≤ -4.2
3,A28U C36G G71U C95U C123U,≤ -4.2
4,A28U C43A G86U,≤ -4.2
5,A28U C43U A52C U55A A91U C105G G136C U151A,≤ -4.2
6,A28U C51U A110G,≤ -4.2
7,A28U C54A A91C C95A,≤ -4.2
8,A28U C54A G92U C118U G124U C131A A137U,≤ -4.2
9,A28U C54A U55A U101G U111A,≤ -4.2
10,A28U C54U C76A C114U,-3.97
11,A28U C57A A60G A122C G133U,≤ -4.2
12,A28U C57A G68A U104A C118G U139C G140A U145C,≤ -4.2
13,A28U C57G G65U G83A A89U A98U C118A,≤ -4.2
14,A28U C57U G84U G94A A98U C116A A147C,≤ -4.2
15,A28U C57U U90C C95A C116G,≤ -4.2
16,A28U C63G G83U C87U U111G,≤ -4.2
17,A28U C63U G92A C103U U148G,≤ -4.2
18,A28U C75G G80C A97U U101C,≤ -4.2
19,A28U C79G C99U A106U A113U C118A,≤ -4.2
20,A28U C85G,≤ -4.2
21,A28U C85U U134C A142G,≤ -4.2
22,A28U C87G C93A C103G G143C,≤ -4.2
23,A28U C87G U127A G133C U139A,-4.15
24,A28U C87U A106U C108U A119C U148C,≤ -4.2

row,Variant,polymerase ribozyme fitness (log ratio)
1,A28U C95A,-3.41
2,A28U C99A,-4.15
3,A28U C123U,≤ -4.2
4,A28U G34A A142G,≤ -4.2
5,A28U G34U U56A G86C U109C G124U U130C A137C G143U,≤ -4.2
6,A28U G42A G50C A64G C79U G83U U134A A138U U144A,≤ -4.2
7,A28U G42A U53A G67C G81A G94A A115U A142C U148C,≤ -4.2
8,A28U G42C A52C G100C G117C,≤ -4.2
9,A28U G42U C51G U53C G59U U90G A91G G140C U144G A150C,≤ -4.2
10,A28U G42U G59C A64C U78C C87A,≤ -4.2
11,A28U G46C A52G C54U U56A C95A C108U C129G,≤ -4.2
12,A28U G46C C51U,≤ -4.2
13,A28U G48C G59A A66U C69U,≤ -4.2
14,A28U G50A C57A U78G G88C C103A U135G,≤ -4.2
15,A28U G50A U55A A66C C69G G100A U101A A110U,≤ -4.2
16,A28U G58C C96A A97G U144A U145G,≤ -4.2
17,A28U G59A C87A G136U,≤ -4.2
18,A28U G59C A64G A73C A91G G141U,≤ -4.2
19,A28U G59U G70A C93G C95A A107U G117C A121G,≤ -4.2
20,A28U G62C C87A,≤ -4.2
21,A28U G65C G86A C99U A113G A147G U148G,≤ -4.2
22,A28U G65U U82G U101G C103A G152U,≤ -4.2
23,A28U G67A G74A G86C C108A C132A,≤ -4.2
24,A28U G67A U77C G92U U144A,≤ -4.2

row,Variant,polymerase ribozyme fitness (log ratio)
1,A28U G67U C103A,≤ -4.2
2,A28U G70U G83C C131U,≤ -4.2
3,A28U G81U U82C G92A C108A G112U U135A,≤ -4.2
4,A28U G83A A91G A115U U145A,≤ -4.2
5,A28U G86A A89G A120C A142C G143A,≤ -4.2
6,A28U G86A G100C G140U,≤ -4.2
7,A28U G88A A107G A142C U151A,≤ -4.2
8,A28U G88A G94A C99G C103G U104A A107G,≤ -4.2
9,A28U G94C G143U G152C,≤ -4.2
10,A28U G100C U102A,≤ -4.2
11,A28U G117U,≤ -4.2
12,A28U U31A A39G A41C C75G C76U G83U,≤ -4.2
13,A28U U31A G67C C76A C93G C132U,≤ -4.2
14,A28U U31C G48A G68A C87A C123U A137G,≤ -4.2
15,A28U U31C G50A C96U U134A,≤ -4.2
16,A28U U33C A52G G65U C75G,≤ -4.2
17,A28U U33C U45A C75G C95U C125U,≤ -4.2
18,A28U U33G A41C G86A U111A C116A C123U,≤ -4.2
19,A28U U33G U55A U101G A113U U144A,≤ -4.2
20,A28U U44G G50U C87G A91U C108G A115G G117C C129U U134G,≤ -4.2
21,A28U U45A C57U A60G C75G G94A G126C,≤ -4.2
22,A28U U45A G48U A98G,≤ -4.2
23,A28U U53A A64C G74C C87A C108U G112A C116U A138U A142U,≤ -4.2
24,A28U U55A,-4.13

row,Variant,polymerase ribozyme fitness (log ratio)
1,A28U U55G C85G G88A A89U C103U G143C,≤ -4.2
2,A28U U56A,≤ -4.2
3,A28U U56A A91U C96G A107G C118A U145G,≤ -4.2
4,A28U U56A C76U G94C G112A,≤ -4.2
5,A28U U56A G94C U134A U135G A150C,≤ -4.2
6,A28U U56C C79A,≤ -4.2
7,A28U U61A C76A C87U G88C U135C,≤ -4.2
8,A28U U61C G68A G86A A89U G117C,≤ -4.2
9,A28U U61G C87G,-4.14
10,A28U U102G,≤ -4.2
11,A28U U109A A137G G143A U146G,≤ -4.2
12,A28U U127C,≤ -4.2
13,A29C A30G C51U G81A G126U U146G,≤ -4.2
14,A29C A30U A49G C85U G92C,≤ -4.2
15,A29C A30U G42U C93U C105G U139G,≤ -4.2
16,A29C A37C G74A A97G U130A,≤ -4.2
17,A29C A37G C87A,≤ -4.2
18,A29C A37U G68C C85G A89U A120U,≤ -4.2
19,A29C A39C C51U C57A G67A C95G,≤ -4.2
20,A29C A39C U53A A122G C123A U135G U146A,≤ -4.2
21,A29C A39G U56A C79U,≤ -4.2
22,A29C A39U A52C U101G C125G G126A G143U U146C,≤ -4.2
23,A29C A39U A52U A60C C75U C95A A113U U139C G143U,≤ -4.2
